In article PMC6212790 one finds binding signal data, which are given here for 109 sequences.

The other results are listed elsewhere or left out. At the low end of the ranking, values are background and their order means little.

The target in this assay is T1, GST-Rok (full length) (UniProt O34857).
T1 sequence: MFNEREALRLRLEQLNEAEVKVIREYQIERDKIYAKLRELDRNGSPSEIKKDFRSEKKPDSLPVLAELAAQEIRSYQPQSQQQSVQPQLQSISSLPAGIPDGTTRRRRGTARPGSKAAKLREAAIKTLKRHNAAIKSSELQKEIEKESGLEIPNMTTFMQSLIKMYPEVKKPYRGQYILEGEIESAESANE
The assay can be described thus: protein binding microarray.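 Further: rank score from −0.5 (least bound) to 0.5 (best bound).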 The conditions noted are these: Rok is a gene silencer of Bacillus subtilis; high values mean tight binding; most listed sequences are background and not binding sites; double strand, one strand shown.
TAATTAAA yielded a binding signal of 0.259 E-score. Sequence GAACTAAC came in with a binding signal of 0.216 E-score. For AGCTTCAC, the binding signal is -0.0162 E-score. The value for TGAGGACA was -0.062 E-score; that for CGTACTAA was 0.217 E-score.

The sequence CATCGCAC displayed a binding signal of 0.0143 E-score.

The sequence CGGTACAG registered a binding signal of 0.0499 E-score.

CATAAGTC came in with a binding signal of -0.1 E-score. In turn, GACGCAAC showed a binding signal of 0.231 E-score. In turn, GTCGCAAA registered a binding signal of -0.0931 E-score.

GAATACGC: the binding signal was 0.167 E-score. The value for ATCGCGTG was -0.0961 E-score. AGACCATA came in with a binding signal of 0.114 E-score.

Regarding CATTATCG, the binding signal is 0.148 E-score. In turn, CGGTCTAG came in with a binding signal of -0.0138 E-score. The value for CCTTAAGA was -0.0361 E-score; that for AGCTTGCG was -0.164 E-score. AAGTTCAG showed a binding signal of 0.0854 E-score. Regarding CTAGAGGA, the binding signal is -0.0599 E-score. For the sequence ACGCTACA, the binding signal was 0.113 E-score. On to TGATTACA, for which the binding signal was 0.139 E-score. Sequence ACCTCGCC had a binding signal of -0.179 E-score. As to ACGCTGAC, the binding signal was -0.0558 E-score.

For TCTACAAA, the binding signal was found to be 0.255 E-score. Take ATGAGTTG: the binding signal is -0.0707 E-score. GATCCTGC showed a binding signal of -0.187 E-score. The sequence GGTTCTTA yielded a binding signal of -0.136 E-score. Turning to ACACGACA, the binding signal was -0.0272 E-score. The sequence CCACCGGA came in with a binding signal of -0.0835 E-score. AATGCCCT: the binding signal was -0.062 E-score. GCTCGGCC displayed a binding signal of -0.342 E-score.

Sequence CTATGCCC registered a binding signal of -0.283 E-score. Regarding CGCGCGCA, the binding signal is 0.14 E-score. Consider CGAGCAGA, for which the binding signal is -0.105 E-score. In turn, GAGCTCAC displayed a binding signal of -0.145 E-score. As to TATTTCGA, the binding signal was 0.235 E-score. GCCCCGAA displayed a binding signal of -0.136 E-score. The value for AATGACAC was -0.00549 E-score; that for GACAGGCC was -0.286 E-score. The value for ACTTTTAG was 0.0682 E-score. In turn, CGCCAATC gave a binding signal of -0.127 E-score. For ACGTCCCC, the binding signal is -0.306 E-score. Consider GAATTTCC, for which the binding signal was -0.0058 E-score. For the sequence AGCACGTC, the binding signal was -0.0902 E-score. Sequence CACTCAGA gave a binding signal of -0.0327 E-score. In the case of GGAACAAA, the binding signal was found to be 0.0514 E-score. Take ACGAGTAC: the binding signal amounted to 0.171 E-score. Take GAACATAC: the binding signal turned out to be 0.101 E-score. The sequence TACGCGCA returned a binding signal of -0.0904 E-score. ACGTAGTA registered a binding signal of 0.24 E-score. In turn, AGCTTCCA registered a binding signal of -0.0198 E-score. The sequence CTGCCAAC had a binding signal of -0.103 E-score. Take GACCGGAA: the binding signal came out at 0.0269 E-score. CCCATAAG yielded a binding signal of -0.19 E-score.

Take CATTTTAC: the binding signal is 0.349 E-score. As for AGGATCCT, the binding signal is -0.0466 E-score.

In turn, TAACAGAA gave a binding signal of 0.205 E-score.

AGTAGGAA gave a binding signal of 0.231 E-score. The value for CGCTTACG was 0.058 E-score. With GCACTAAC, the binding signal was -0.161 E-score. TAATGGTA: the binding signal was 0.387 E-score. The value for CACGAGGA was -0.174 E-score. Take ATCGTCAT: the binding signal is 0.0846 E-score.

CGTCGAAC: the binding signal is -0.092 E-score. The value for GCAGTACC was -0.189 E-score. As to GCGGAACA, the binding signal was found to be 0.0356 E-score. As for AGAGGGTA, the binding signal is -0.0286 E-score. Sequence AATCGCCC showed a binding signal of -0.137 E-score.

In turn, AACGATCA gave a binding signal of 0.00961 E-score. In turn, AACTGTGT came in with a binding signal of -0.00841 E-score. GAAGCTGA came in with a binding signal of 0.0384 E-score.

On to CGTCCGGA, for which the binding signal was -0.0158 E-score.

CACAGTAG came in with a binding signal of 0.0684 E-score. The value for AGGTCAGG was -0.168 E-score; that for AGAGATAT was 0.16 E-score; that for CTTAAGAA was 0.0746 E-score. With CTTGCTGC, the binding signal was -0.241 E-score.

CAAGTGCG returned a binding signal of 0.0336 E-score. The value for AAGGGGAT was -0.315 E-score. ACTGAACC returned a binding signal of 0.0976 E-score.

Consider ATTCTGTC, for which the binding signal worked out at 0.152 E-score.

AAGCTTTA registered a binding signal of 0.0476 E-score.

As to GGAAAACA, the binding signal was -0.037 E-score. ATATCCAG gave a binding signal of 0.0693 E-score. For the sequence CCTCCCAA, the binding signal is -0.219 E-score.

TAAGCGGA had a binding signal of -0.0509 E-score. AATCTGTA: the binding signal was 0.326 E-score. The sequence CTGTTGCC gave a binding signal of -0.15 E-score. On to GTCGAAAC, for which the binding signal was determined as 0.0241 E-score. As to AGGGAGGA, the binding signal is -0.279 E-score. CGGAAAGA: the binding signal worked out at 0.0118 E-score. The value for ATCGGTGC was 0.0166 E-score; that for ACGCGGCG was -0.352 E-score. For the sequence GAATGTGA, the binding signal was -0.00931 E-score. As for CGGCTTTA, the binding signal was -0.104 E-score. On to CGTGTAAC, for which the binding signal is 0.164 E-score. Sequence ATGAGTGG yielded a binding signal of -0.0865 E-score. AACTTCCA displayed a binding signal of 0.0197 E-score. CAAGCGTG: the binding signal is -0.0526 E-score.

In turn, AGGTGCAG displayed a binding signal of -0.204 E-score.

GAGGATTA gave a binding signal of -0.0511 E-score. In turn, GATATACA had a binding signal of 0.25 E-score.

Consider CGGTACGC, for which the binding signal is -0.045 E-score. Turning to AGAATCTA, the binding signal is 0.337 E-score.

As for CTCGTGCC, the binding signal is -0.185 E-score.

Turning to GGAAGTCA, the binding signal is -0.0578 E-score. As to CTTAGTAA, the binding signal is 0.189 E-score. The value for CGGTTTAG was -0.164 E-score; that for CAAGGATA was 0.0818 E-score.
